Experimental data reported in the supplement of paper PMC3334620.
In all, about 33,000 sequences were measured (“E-score (-0.5 to 0.5)”: median about -0.021, highest 2% from about 0.32 on). This is one part of the list.

Target: T1, Zap1 (UniProt P47043)
T1 sequence: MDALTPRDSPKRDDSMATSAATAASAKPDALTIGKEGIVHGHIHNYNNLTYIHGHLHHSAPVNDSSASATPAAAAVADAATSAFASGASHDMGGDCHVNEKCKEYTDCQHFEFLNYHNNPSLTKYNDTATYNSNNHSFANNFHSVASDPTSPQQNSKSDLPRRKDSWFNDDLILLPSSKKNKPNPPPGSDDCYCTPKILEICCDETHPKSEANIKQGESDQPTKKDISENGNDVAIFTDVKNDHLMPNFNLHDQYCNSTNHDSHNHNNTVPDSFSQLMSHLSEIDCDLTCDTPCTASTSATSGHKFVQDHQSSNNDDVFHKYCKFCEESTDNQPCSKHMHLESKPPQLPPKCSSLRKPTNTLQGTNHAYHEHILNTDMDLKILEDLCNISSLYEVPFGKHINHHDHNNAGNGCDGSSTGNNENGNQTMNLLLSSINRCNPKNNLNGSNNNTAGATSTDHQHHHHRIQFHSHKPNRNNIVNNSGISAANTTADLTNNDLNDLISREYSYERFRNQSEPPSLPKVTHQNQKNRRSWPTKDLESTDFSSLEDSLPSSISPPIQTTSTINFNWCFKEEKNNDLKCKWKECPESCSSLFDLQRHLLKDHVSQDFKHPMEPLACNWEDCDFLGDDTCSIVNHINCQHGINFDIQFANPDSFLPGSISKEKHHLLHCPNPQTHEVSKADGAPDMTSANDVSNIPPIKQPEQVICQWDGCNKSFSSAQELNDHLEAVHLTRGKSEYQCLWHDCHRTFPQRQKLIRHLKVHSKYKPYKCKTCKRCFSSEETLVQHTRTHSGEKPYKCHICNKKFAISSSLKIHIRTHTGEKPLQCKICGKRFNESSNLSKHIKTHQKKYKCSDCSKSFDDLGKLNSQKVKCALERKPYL
Assay: PBM E-score (8-mer binding enrichment) (E-score (-0.5 to 0.5)); higher = stronger / more preferred TF binding; most listed sequences are background and not binding sites
Details: protein concentration: 200 nM; construct: GST-full length
Method in brief: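 Bound GST-tagged yeast transcription factors, applied at about 100-200 nM to double-stranded universal all-10-mer Agilent arrays, were detected with fluorescent anti-GST. Scans were normalised with masliner. A modified Wilcoxon-Mann-Whitney statistic, the E-score, was assigned to each ungapped eight-base word pooled with its reverse complement by the Universal PBM Analysis Suite.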

In order of rising “PBM E-score” value:
1. GCTTCCCC  -0.372
2. CGGGGGGA  -0.309
3. CGTGCAGC  -0.252
4. AAGCTACG  -0.207
5. AGAGTTCA  -0.195
6. AGACGAGA  -0.193
7. GCATCGCA  -0.193
8. CAGTAATC  -0.19
9. GGGACGTA  -0.186
10. GTCCCCCA  -0.185
11. CCTAGGCG  -0.181
12. CCCGTAGC  -0.177
13. GGGGGCCA  -0.17
14. GACGGGGC  -0.158
15. GGACAAGA  -0.152
16. CCACTCCG  -0.145
17. AGGCGCGA  -0.143
18. ACATGCTG  -0.135
19. AATGTTAA  -0.132
20. GTATTGGA  -0.131
21. CTTAGTCA  -0.129
22. GATAGTCC  -0.115
23. AGGGCTGG  -0.114
24. ACCGGATC  -0.112
25. CGAAGTGC  -0.11
26. CAAGCAAG  -0.107
27. CGAATGAG  -0.106
28. GCAATGCC  -0.104
29. GACCCGTC  -0.104
30. AGACAAAG  -0.103
31. ATCGGCGA  -0.0893
32. CCACGTAA  -0.086
33. CATGATTC  -0.0842
34. AACGATTA  -0.0818
35. AGCTCCAA  -0.0738
36. AAAAGTGT  -0.0724
37. CTAAGTTC  -0.0514
38. CCTGGCAA  -0.0449
39. GGCAAGTA  -0.0375
40. GCCATGTA  -0.0366
41. GGAGATCC  -0.0331
42. CACCGACC  -0.0271
43. GCCGAAAC  -0.0197
44. AATAAGCG  -0.0136
45. ATAGATTC  -0.0013
46. ACTGCGAT  0.00465
47. CTACACAC  0.0068
48. GGCCTCGA  0.00761
49. AATGTCTA  0.00891
50. GTATTCCA  0.00902
51. AACATATA  0.0133
52. ATAGATCC  0.0139
53. ACGATCCA  0.0153
54. ATACTATG  0.0167
55. ATAATGGA  0.042
56. AACTTTAT  0.0578
57. ATATTCAA  0.0621
58. CCTCTAAC  0.0622
59. ACTGACAT  0.0656
60. CATTTGGA  0.072
61. CATTTCCG  0.0753
62. AGACCGCA  0.0823
63. TAATAACA  0.104
64. GATTGAGA  0.109
65. GTCAGAAA  0.109
66. TCAAGGGA  0.127
67. GGCTAAAA  0.131
68. ACCCATTC  0.131
69. AACGATAC  0.14
70. ATACGTAT  0.143
71. AATTCACA  0.157
72. CCTAAGAA  0.162
73. ATTTTACG  0.166
74. ATTACTAA  0.175
75. CAACGTTA  0.176
76. TTGCAAAA  0.179
77. ATTACCGC  0.217
78. AATTAGAT  0.228
79. AATAAAAC  0.228
80. GTCACTAA  0.234
81. ATCAACCC  0.265
82. TTACTAAA  0.267
83. AAGGTTGG  0.281
84. ACACAACC  0.291
85. ACCCCACA  0.3
86. ACCCTGCA  0.394
